Laboratory results reported in the supplement of paper PMC3334620.
The full ranking holds about 33,000 sequences; the median of “E-score (-0.5 to 0.5)” is about -0.036, and the highest 2% start at about 0.37. The list shows a part of the results.

Biological target: T1, Yer064c (UniProt P40041)
T1 sequence: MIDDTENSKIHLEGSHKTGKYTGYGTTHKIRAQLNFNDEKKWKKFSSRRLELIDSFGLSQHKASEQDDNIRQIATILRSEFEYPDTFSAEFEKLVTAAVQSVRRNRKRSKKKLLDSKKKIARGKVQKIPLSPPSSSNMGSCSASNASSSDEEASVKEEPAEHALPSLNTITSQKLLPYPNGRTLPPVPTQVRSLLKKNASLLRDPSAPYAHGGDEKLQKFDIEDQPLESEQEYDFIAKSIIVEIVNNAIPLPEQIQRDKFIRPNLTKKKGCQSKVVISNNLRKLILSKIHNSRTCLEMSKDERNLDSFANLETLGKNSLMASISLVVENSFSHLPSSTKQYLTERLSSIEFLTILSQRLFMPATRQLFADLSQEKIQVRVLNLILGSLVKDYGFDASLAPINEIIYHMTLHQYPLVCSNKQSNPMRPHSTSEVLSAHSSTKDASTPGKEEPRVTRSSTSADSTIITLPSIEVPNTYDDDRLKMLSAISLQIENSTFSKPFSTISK
Assay: PBM E-score (8-mer binding enrichment) (E-score (-0.5 to 0.5)); higher = stronger / more preferred TF binding; most listed sequences are background and not binding sites
Conditions: protein concentration: 200 nM; construct: GST-full length
Summary of the method: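 For each ungapped eight-base word taken together with its reverse complement, the Universal PBM Analysis Suite assigned an E-score. Binding data came from GST-tagged yeast transcription factors, applied at about 100-200 nM, on universal all-10-mer Agilent arrays made double-stranded by primer extension. Fluorescent anti-GST marked bound protein, and scans were normalised with masliner.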

Sequence	PBM E-score
AACTGAAA	-0.018
CTCTCGCA	0.158
CCCAAGAC	0.0557
GCGCCCGC	-0.309
GCGATCCC	-0.123
GCAAGAAC	0.0319
CCAGCGCG	-0.179
CATCGGTC	-0.0673
TCAATTGA	0.165
CAGAAATA	-0.0853
CTCCGAAG	-0.0766
AACGGCAC	-0.179
GAGCTCGA	0.038
ATGCCCTC	-0.0925
CCTTTGTC	-0.106
ATCATCGC	0.239
CTACAGAA	0.113
CCCTTGTA	-0.261
CAGAGATC	-0.184
TCCGGGAA	-0.103
GTGATTTA	0.35
TAGGCACA	-0.226
AATCGTGG	0.117
CCCTCACG	-0.109
AATTTTTG	0.0648

Sequence	PBM E-score
ATCCAGTA	-0.00593
AGACGACG	-0.265
GGGTTGAC	0.193
AAAAGGAG	-0.108
GCATGCCC	-0.0887
AAGCACGG	-0.314
TGAGGACA	-0.178
AAGTCAAA	0.288
GCTCGCAC	-0.24
TCTAACCA	0.117
CGGCCGGA	-0.19
CCTACAGC	-0.0789
AAACATTA	-0.0151
CCCACAGG	-0.12
CCGCTTAG	-0.0707
ACGCACTA	-0.101
AGCGCGGA	-0.0767
CTTTGCCC	-0.264
AGACCCCC	-0.38
ATCTATTA	-0.00516
ATGTATGG	-0.153
CCCCTGAA	-0.18
CATCCAAG	-0.0881
AAGGGTAG	-0.127
CCTTCAAG	-0.0863

Sequence	PBM E-score
AGCACGAT	-0.0349
GCTAGTTA	0.00744
CAACTCAC	0.224
GCAGAATA	-0.133
ACGAGCCC	-0.216
TGAACAAA	-0.159
ATACCGAA	-0.099
ATTCTATG	-0.0597
AGGATATG	-0.217
CAGTCTGG	-0.101
ATACGGGC	-0.205
ATGTTCAA	-0.00212
CGAAAGCC	-0.268
CCGCCTTA	-0.211
CAGGTTGG	-0.126
ACAATGCA	0.0215
CCGCACGG	-0.24
CGTGGTTA	0.236
AGTCCGTC	0.126
AAGACACG	-0.0488
AAGTTCCT	-0.196
AGTACTAA	0.239
AGATTCCA	0.0276
ATAGTAGA	-0.0439
ACGATGCA	-0.119

Sequence	PBM E-score
AGTATCTG	-0.0902
ACTGTTGA	0.111
TATATGAA	0.226
GAGGTATA	0.165
GGCCAACC	-0.207
TATACGAA	0.0616
AATGATAA	0.0741
ACACTCCT	-0.0508
AATTCCAC	-0.0666
ATGGGGCG	-0.111
TCTGGCCA	-0.057
GCGATACC	-0.165
CCTTAGCA	-0.152
AGAACTGA	0.178
ATCGACGC	-0.136
GGCCAGAC	-0.205
ATTTAGTA	0.253
GCGGTTGA	0.13
GGATTAAA	0.205
AAACGTAT	0.0553
GCGCAAAA	0.00891
AAATGTGG	-0.0256
ACTGGCAA	0.0286
ACCGTAAA	0.0236
CACGTTGC	-0.00855

Sequence	PBM E-score
AGGGAGTA	0.0389
AAGTTCAT	0.0173
GAGCGCGC	-0.194
GGACCCCC	-0.312
AGACCACC	-0.141
ACTTGCAC	-0.00112
AGGTCGAC	-0.00066
AGGCGGCC	-0.104
CCTTCAGC	-0.126
CCGCGGAG	-0.127
CAGACATA	-0.166
AAACGGCA	-0.142
ACTAGCGA	0.148
ATACATCA	-0.131
GTCTTCAA	0.144
GGGCTCAA	-0.0532
CAGAGGTA	-0.0515
GGATCCAC	-0.156
GATGCCGC	-0.28
CTAACACC	-0.0031
GGCGTAGA	-0.153
CGAGCTCG	0.154
AATTCGCA	-0.167
GATCACGA	0.0675
CCCTACGG	-0.216

Sequence	PBM E-score
CGCGTAGC	-0.0788
GACACTAC	-0.0177
ATACTCGC	-0.00994
CTAGAATA	0.0162
GAGCACTA	0.0818
ATCGCAAA	-0.00969
GCTAATCA	0.372
AGCGTTGG	-0.135
GCTGCCCA	-0.206
AAGATGGA	-0.142
ATTCGCTC	0.0766
CGAAGTCA	0.437
TATTGCCA	-0.211
GCGCTGGA	-0.107
GATGTTCC	-0.164
ACAGCTCC	0.0343
AAATGTAG	-0.106
TACAATCA	0.335
ATTCGTAC	0.113
AAGAGATA	-0.138
GATCGACA	-0.179
ACCCTCCC	-0.0175
AATCTTGT	0.115
GTCGCAGA	0.077
CGTGCTAA	-0.00101

Sequence	PBM E-score
CCATTTGA	-0.0671
TCTTCGCA	-0.0221
CTTCAGTC	0.292
AACGAAGG	-0.209
TACTCCAA	0.00552
ACGTCAAC	0.0642
GATCAGGC	0.00236
ATTGAGTG	0.149
TCCAAGGA	-0.0695
AGTCTAGA	0.165
ATATCTGC	-0.0998
ACGATAAA	-0.203
ACGTCCCT	-0.256
ACATGTAA	0.0621
GCCTTGGA	-0.138
AACTCTCT	0.0451
GTTGACTA	0.457
AAAGTAGG	-0.13
AGAGGCTG	-0.167
TAGGCCCA	-0.223
CTCAAACA	0.174
ACTGCCCG	0.153
ATGTGAAC	-0.0638
AGCGCTTA	-0.111
ACGACAAC	0.0443

Sequence	PBM E-score
TAAATTAA	0.119
CCTTGATA	-0.00742
ATTGCACC	-0.0714
GGCGCTTA	-0.373
ATCTAGCA	-0.135
ATATTAAT	0.0804
CACCATTA	-0.0505
ACTGCTTA	0.0232
ATATGACG	0.0376
CATCTCGG	0.181
AGAGCCAG	-0.228
ACCACAGA	-0.0666
AAATCGTC	0.0138
AACCACCA	0.0562
AACGCTTC	-0.185
CTAAAGAA	-0.0272
ACCGCGGG	0.0814
AGCCGCAT	-0.135
ATGAAAAG	-0.0509
ACATACTA	-0.0662
CTCTAGAC	0.101
ACTACCGG	-0.013
GCAATGGA	0.00609
AAACAAGT	0.208
CTGGGGCC	-0.291

Sequence	PBM E-score
AGCCCCGC	-0.279
AAGTGGCA	-0.0485
GATGCCCC	-0.286
TCGCAACA	0.0311
ATTGACCA	-0.0765
CTGCCTCA	-0.201
GATTAGCA	0.171
GTTAAACA	0.189
CGCTAATA	-0.0255
ACCGTGAT	0.136
ACCTGACG	-0.192
ACCGGGTG	0.1
GCACCCCC	-0.268
AGCAACCT	-0.232
CTGACCAA	0.0591
TGGTCACA	0.103
GGGGAACC	-0.259
AGCAGTAC	0.0125
CTCTCGTA	0.0984
